Test results from US20260242437A1 (BEIJING MABWORKS BIOTECH, published 2026).

T1: recombinant human IL-2Rβγ protein (human, UniProt P14784 27-240; P31785 23-262)
T1 construct: Bought protein
T1 sequence (looked up) 1: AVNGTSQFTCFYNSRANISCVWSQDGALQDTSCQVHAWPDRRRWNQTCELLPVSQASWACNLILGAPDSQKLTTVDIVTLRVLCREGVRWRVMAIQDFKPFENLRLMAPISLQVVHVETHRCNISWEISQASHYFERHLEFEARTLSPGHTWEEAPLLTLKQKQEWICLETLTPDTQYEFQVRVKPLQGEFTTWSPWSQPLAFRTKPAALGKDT
T1 sequence (looked up) 2: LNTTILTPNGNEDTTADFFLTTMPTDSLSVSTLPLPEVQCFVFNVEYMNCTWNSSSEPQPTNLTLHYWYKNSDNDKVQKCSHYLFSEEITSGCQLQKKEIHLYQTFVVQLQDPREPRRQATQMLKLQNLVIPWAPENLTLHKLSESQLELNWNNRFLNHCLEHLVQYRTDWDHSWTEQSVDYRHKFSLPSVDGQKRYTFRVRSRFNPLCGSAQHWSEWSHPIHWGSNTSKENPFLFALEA

T2: human IL-2Rαβγ (high-affinity IL-2 receptor) on cells (human, UniProt P01589 22-272; P14784 27-551; P31785 23-369)
T2 sequence (looked up) 1: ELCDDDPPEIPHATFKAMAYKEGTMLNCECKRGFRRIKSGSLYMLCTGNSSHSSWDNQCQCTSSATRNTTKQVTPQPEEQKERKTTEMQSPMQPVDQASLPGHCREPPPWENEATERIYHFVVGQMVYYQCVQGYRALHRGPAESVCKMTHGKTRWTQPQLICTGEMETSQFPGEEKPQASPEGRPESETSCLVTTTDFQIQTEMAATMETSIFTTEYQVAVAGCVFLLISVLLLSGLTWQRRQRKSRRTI
T2 sequence (looked up) 2: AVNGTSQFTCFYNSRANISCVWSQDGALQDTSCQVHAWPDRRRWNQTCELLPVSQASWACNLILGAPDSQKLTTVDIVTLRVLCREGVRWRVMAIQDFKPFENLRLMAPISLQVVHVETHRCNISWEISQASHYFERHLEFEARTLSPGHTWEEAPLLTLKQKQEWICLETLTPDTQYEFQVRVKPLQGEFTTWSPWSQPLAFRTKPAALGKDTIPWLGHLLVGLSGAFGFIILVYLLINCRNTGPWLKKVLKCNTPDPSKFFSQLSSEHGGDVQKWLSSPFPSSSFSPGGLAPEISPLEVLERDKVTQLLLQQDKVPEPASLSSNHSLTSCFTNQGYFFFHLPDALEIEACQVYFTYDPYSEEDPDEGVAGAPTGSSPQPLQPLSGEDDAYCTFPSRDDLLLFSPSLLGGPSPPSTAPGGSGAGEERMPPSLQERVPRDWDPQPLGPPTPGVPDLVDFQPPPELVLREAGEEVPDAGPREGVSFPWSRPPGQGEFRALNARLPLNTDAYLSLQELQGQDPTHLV
T2 sequence (looked up) 3: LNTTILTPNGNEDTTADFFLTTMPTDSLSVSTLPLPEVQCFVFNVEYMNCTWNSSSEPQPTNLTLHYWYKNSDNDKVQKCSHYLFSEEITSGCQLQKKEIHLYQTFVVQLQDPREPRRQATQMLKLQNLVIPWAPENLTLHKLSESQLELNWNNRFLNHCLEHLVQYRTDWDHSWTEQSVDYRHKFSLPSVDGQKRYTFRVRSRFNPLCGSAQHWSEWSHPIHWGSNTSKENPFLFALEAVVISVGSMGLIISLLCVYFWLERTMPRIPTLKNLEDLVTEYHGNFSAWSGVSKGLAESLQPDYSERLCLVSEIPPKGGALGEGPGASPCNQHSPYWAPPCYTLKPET


Columns and labels:
[1] = biological target: T1, recombinant human IL-2Rβγ protein; experiment: SPR (BIAcore 8K), bispecific protein captured by anti-human Fc on CM5, IL-2Rβγ in flow
[2] = biological target: human PD-1 (human, UniProt Q15116 25-288); experiment: cell-based or functional assay
[3] = biological target: T2, human IL-2Rαβγ (high-affinity IL-2 …); experiment: cell-based or functional assay

Chain of UniProt Q15116 (Q15116 25-288 limits assumed): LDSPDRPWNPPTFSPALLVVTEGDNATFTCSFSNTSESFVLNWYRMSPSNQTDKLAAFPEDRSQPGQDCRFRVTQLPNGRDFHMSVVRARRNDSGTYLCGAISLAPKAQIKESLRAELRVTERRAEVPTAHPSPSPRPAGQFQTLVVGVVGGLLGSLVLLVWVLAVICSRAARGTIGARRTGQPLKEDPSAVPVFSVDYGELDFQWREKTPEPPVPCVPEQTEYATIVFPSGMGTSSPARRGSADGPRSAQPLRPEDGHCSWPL

Kd [1] [nM]	koff [1] [s⁻¹]	kon [1] [M⁻¹ s⁻¹]	EC50 (ng/mL)-PD1+ HEK Blue/IL-2 [2] [ng/mL]	EC50 (ng/mL)-PD1- HEK-Blue/IL-2 [3] [ng/mL]	Binder
2.4	0.000331	138000	0.171	11600	bispecific recombinant protein 309-4 (other) heavy 1: QVQLVQSGVEVKKPGASVKVSCKASGYTFTNYYMYWVRQAPGQGLEWMGGINPSNGGTNFNEKFKNRVTLTTDSSTTTAYMELKSLQFDDTAVYYCARRDYRFDMGFDYWGQGTTVTVSSASTKGPSVFPLAPSSKSTSGGTAALGCLVKDYFPEPVTVSWNSGALTSGVHTFPAVLQSSGLYSLSSVVTVPSSSLGTQTYICNVNHKPSNTKVDKKVEPKSCDKTHTCPPCPAPEAAGGPSVFLFPPKPKDTLMISRTPEVTCVVVDVSHEDPEVKFNWYVDGVEVHNAKTKPREEQYNSTYRVVSVLTVLHQDWLNGKEYKCKVSNKALAAPIEKTISKAKGQPREPQVYTLPPSRDELTKNQVSLSCAVKGFYPSDIAVEWESNGQPENNYKTTPPVLDSDGSFFLVSKLTVDKSRWQQGNVFSCSVMHEALHNHYTQKSLSLSP heavy 2: QVQLVQSGVEVKKPGASVKVSCKASGYTFTNYYMYWVRQAPGQGLEWMGGINPSNGGTNFNEKFKNRVTLTTDSSTTTAYMELKSLQFDDTAVYYCARRDYRFDMGFDYWGQGTTVTVSSASTKGPSVFPLAPSSKSTSGGTAALGCLVKDYFPEPVTVSWNSGALTSGVHTFPAVLQSSGLYSLSSVVTVPSSSLGTQTYICNVNHKPSNTKVDKKV[human IgG1 Fc with L234A L235A P329A T366W (EU numbers) omitted here]GGGGSGGGGSGGGGSAPASSSTKKTQLQLEHLLLDLQMILNGINNYKNPLTRMLTAKFRMPKKATELKHLQCLEEELKPLEEVLNLAQSKNFHLRPRDLISDINVIVLELKGSETTFMCEYADETATIVEFLNRWITFSQSIISTLT light: EIVLTQSPATLSLSPGERATLSCRASKGVSTSGYSYLHWYQQKPGQAPRLLIYLASYLESGVPARFSGSGSGTDFTLTISSLEPEDFAVYYCQHSRDLPLTFGGGTKVEIKRTVAAPSVFIFPPSDEQLKSGTASVVCLLNNFYPREAKVQWKVDNALQSGNSQESVTEQDSKDSTYSLSSTLTLSKADYEKHKVYACEVTHQGLSSPVTKSFNRGEC
3.7	0.000428	116000	6.37	9680	bispecific recombinant protein 309-5 (other) heavy 1: QVQLVQSGVEVKKPGASVKVSCKASGYTFTNYYMYWVRQAPGQGLEWMGGINPSNGGTNFNEKFKNRVTLTTDSSTTTAYMELKSLQFDDTAVYYCARRDYRFDMGFDYWGQGTTVTVSSASTKGPSVFPLAPSSKSTSGGTAALGCLVKDYFPEPVTVSWNSGALTSGVHTFPAVLQSSGLYSLSSVVTVPSSSLGTQTYICNVNHKPSNTKVDKKVEPKSCDKTHTCPPCPAPEAAGGPSVFLFPPKPKDTLMISRTPEVTCVVVDVSHEDPEVKFNWYVDGVEVHNAKTKPREEQYNSTYRVVSVLTVLHQDWLNGKEYKCKVSNKALAAPIEKTISKAKGQPREPQVYTLPPSRDELTKNQVSLSCAVKGFYPSDIAVEWESNGQPENNYKTTPPVLDSDGSFFLVSKLTVDKSRWQQGNVFSCSVMHEALHNHYTQKSLSLSP heavy 2: QVQLVQSGVEVKKPGASVKVSCKASGYTFTNYYMYWVRQAPGQGLEWMGGINPSNGGTNFNEKFKNRVTLTTDSSTTTAYMELKSLQFDDTAVYYCARRDYRFDMGFDYWGQGTTVTVSSASTKGPSVFPLAPSSKSTSGGTAALGCLVKDYFPEPVTVSWNSGALTSGVHTFPAVLQSSGLYSLSSVVTVPSSSLGTQTYICNVNHKPSNTKVDKKV[human IgG1 Fc with L234A L235A P329A T366W (EU numbers) omitted here]GGGGSGGGGSGGGGSAPASSSTKKTQLQLEHLLLDLQMILNGINNYKNPLTRMLTAKFRMPKKATELKHLQCLEEELKPLEEVLNLAQSKNFHLRPRDLISNINVIVLELKGSETTFMCEYADETATIVEFLNRWITFSTSIISTLT light: EIVLTQSPATLSLSPGERATLSCRASKGVSTSGYSYLHWYQQKPGQAPRLLIYLASYLESGVPARFSGSGSGTDFTLTISSLEPEDFAVYYCQHSRDLPLTFGGGTKVEIKRTVAAPSVFIFPPSDEQLKSGTASVVCLLNNFYPREAKVQWKVDNALQSGNSQESVTEQDSKDSTYSLSSTLTLSKADYEKHKVYACEVTHQGLSSPVTKSFNRGEC
